Measured values as given in the supplement of paper PMC8728848.
The list shows a part of the results.

Assays:
Assay in all cases: glycan array binding signal (z-score within array); higher = stronger binding
Details in all cases: glycan notation: IUPAC condensed, linker removed
[1] = biological target: GalNAc(b1-3)Gal
Summary of the method: (§1)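 Negative Z-scores can be read as non-binding. The Z-score is calculated within each array and then averaged across arrays of one protein sequence at different concentrations or buffers and across linkers. Arrays, 3228 in all, were curated from the Consortium for Functional Glycomics database and kept only where the protein sequence was available.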

[2] = biological target: GalNAc(b1-3)Gal(a1-4)Gal(b1-4)GlcNAc
Summary of the method: as §1

[3] = biological target: GalNAc(b1-3)Gal(a1-4)Gal(b1-4)GlcNAc(b1-3)Gal(b1-4)Glc
Summary of the method: as §1

[4] = biological target: GalNAc(b1-3)Gal(a1-6)Gal(b1-4)Glc
Summary of the method: as §1

[5] = biological target: GalNAc(b1-3)GalNAc
Summary of the method: as §1

[6] = biological target: GalNAc(b1-3)GlcNAc
Summary of the method: as §1

[7] = biological target: GalNAc(b1-4)Gal(b1-4)Glc
Summary of the method: as §1

[8] = biological target: GalNAc(b1-4)GlcNAc
Summary of the method: as §1

[9] = biological target: GalNAc(b1-4)GlcNAc(b1-2)Man
Summary of the method: as §1

[10] = biological target: GalNAc(b1-4)GlcNAc(b1-2)Man(a1-3)[GalNAc(b1-4)GlcNAc(b1-2)Man(a1-6)]Man(b1-4)GlcNAc(b1-4)GlcNAc
Summary of the method: as §1

[11] = biological target: GalNAc(b1-4)GlcNAc(b1-3)GalNAc(b1-4)GlcNAc
Summary of the method: as §1

[12] = biological target: GalNAc(b1-4)GlcNAc6S
Summary of the method: as §1

[13] = biological target: GalNAc(b1-6)GalNAc
Summary of the method: as §1

[14] = biological target: GalNAc3S(b1-4)GlcNAc
Summary of the method: as §1

[15] = biological target: GalNAc3S(b1-4)GlcNAc3S
Summary of the method: as §1

[16] = biological target: GalNAc3S(b1-4)[Fuc(a1-3)]GlcNAc
Summary of the method: as §1

[17] = biological target: GalNAc4S6S(b1-4)GlcNAc
Summary of the method: as §1

[18] = biological target: GalNAc6S(b1-4)GlcNAc
Summary of the method: as §1

[19] = biological target: Glc(a1-4)Glc
Summary of the method: as §1

[20] = biological target: Glc(a1-4)Glc(a1-4)Glc(a1-4)Glc
Summary of the method: as §1

[21] = biological target: Glc(a1-6)Glc(a1-6)Glc
Summary of the method: as §1

[22] = biological target: Glc(a1-6)Glc(a1-6)Glc(a1-6)Glc
Summary of the method: as §1

[23] = biological target: Glc(b1-4)Glc
Summary of the method: as §1

[24] = biological target: Glc(b1-6)Glc
Summary of the method: as §1

[25] = biological target: GlcA(b1-3)Gal
Summary of the method: as §1

[26] = biological target: GlcA(b1-3)GlcNAc
Summary of the method: as §1

[27] = biological target: GlcA(b1-6)Gal
Summary of the method: as §1

[28] = biological target: GlcA3S(b1-3)Gal(b1-4)GlcNAc(b1-2)Man
Summary of the method: as §1

[29] = biological target: GlcA3S(b1-3)Gal(b1-4)GlcNAc(b1-3)Gal(b1-4)Glc
Summary of the method: as §1

[30] = biological target: GlcNAc(a1-3)Gal(b1-4)GlcNAc
Summary of the method: as §1

[31] = biological target: GlcNAc(a1-4)Gal(b1-3)GlcNAc
Summary of the method: as §1

[32] = biological target: GlcNAc(a1-4)Gal(b1-4)GalNAc
Summary of the method: as §1

[33] = biological target: GlcNAc(a1-4)Gal(b1-4)GlcNAc
Summary of the method: as §1

[34] = biological target: GlcNAc(a1-4)Gal(b1-4)GlcNAc(b1-3)Gal(b1-4)Glc
Summary of the method: as §1

[35] = biological target: GlcNAc(a1-4)Gal(b1-4)GlcNAc(b1-3)Gal(b1-4)GlcNAc
Summary of the method: as §1

[36] = biological target: GlcNAc(a1-4)Gal(b1-4)GlcNAc(b1-3)Gal(b1-4)GlcNAc(b1-3)Gal(b1-4)GlcNAc
Summary of the method: as §1

[37] = biological target: GlcNAc(a1-4)Gal(b1-4)GlcNAc(b1-3)Gal(b1-4)[Fuc(a1-3)]GlcNAc(b1-3)Gal(b1-4)[Fuc(a1-3)]GlcNAc
Summary of the method: as §1

[38] = biological target: GlcNAc(a1-6)Gal(b1-4)GlcNAc
Summary of the method: as §1

[39] = biological target: GlcNAc(b1-2)Gal(b1-3)GalNAc
Summary of the method: as §1

[40] = biological target: GlcNAc(b1-2)Man(a1-3)[GlcNAc(b1-2)Man(a1-6)]Man(b1-4)GlcNAc(b1-4)GlcNAc
Summary of the method: as §1

[41] = biological target: GlcNAc(b1-2)Man(a1-3)[GlcNAc(b1-2)Man(a1-6)]Man(b1-4)GlcNAc(b1-4)[Fuc(a1-6)]GlcNAc
Summary of the method: as §1

[42] = biological target: GlcNAc(b1-2)Man(a1-3)[GlcNAc(b1-4)][GlcNAc(b1-2)Man(a1-6)]Man(b1-4)GlcNAc(b1-4)GlcNAc
Summary of the method: as §1

[43] = biological target: GlcNAc(b1-2)Man(a1-3)[GlcNAc(b1-4)][GlcNAc(b1-2)Man(a1-6)]Man(b1-4)GlcNAc(b1-4)[Fuc(a1-6)]GlcNAc
Summary of the method: as §1

[44] = biological target: GlcNAc(b1-2)[GlcNAc(b1-4)]Man(a1-3)[GlcNAc(b1-2)Man(a1-6)]Man(b1-4)GlcNAc(b1-4)GlcNAc
Summary of the method: as §1

[45] = biological target: GlcNAc(b1-2)[GlcNAc(b1-4)]Man(a1-3)[GlcNAc(b1-4)][GlcNAc(b1-2)Man(a1-6)]Man(b1-4)GlcNAc(b1-4)GlcNAc
Summary of the method: as §1

B1: NPA (Narcissus pseudonarcissus), C0HM45 (protein)
chain: DNILYSGETLSPGEFLNNGRYVFIMQEDCNLVLYDVDKPIWATNTGGLDRRCHLSMQSDGNLVVYSPRNNPIWASNTGGENGNYVCVLQKDRNVVIYGTARWATGTNIH
- glycan array binding signal (z-score) [1]: -0.146
- glycan array binding signal (z-score) [2]: -0.155
- glycan array binding signal (z-score) [3]: -0.138
- glycan array binding signal (z-score) [4]: -0.144
- glycan array binding signal (z-score) [5]: -0.153
- glycan array binding signal (z-score) [6]: -0.148
- glycan array binding signal (z-score) [7]: -0.129
- glycan array binding signal (z-score) [8]: -0.131
- glycan array binding signal (z-score) [9]: -0.115
- glycan array binding signal (z-score) [10]: 0.008
- glycan array binding signal (z-score) [11]: -0.118
- glycan array binding signal (z-score) [12]: -0.151
- glycan array binding signal (z-score) [13]: -0.151
- glycan array binding signal (z-score) [14]: -0.15
- glycan array binding signal (z-score) [15]: -0.16
- glycan array binding signal (z-score) [16]: -0.152
- glycan array binding signal (z-score) [17]: -0.155
- glycan array binding signal (z-score) [18]: -0.135
- glycan array binding signal (z-score) [19]: -0.144
- glycan array binding signal (z-score) [20]: -0.139
- glycan array binding signal (z-score) [21]: -0.15
- glycan array binding signal (z-score) [22]: -0.145
- glycan array binding signal (z-score) [23]: -0.152
- glycan array binding signal (z-score) [24]: -0.141
- glycan array binding signal (z-score) [25]: -0.148
- glycan array binding signal (z-score) [26]: -0.14
- glycan array binding signal (z-score) [27]: -0.141
- glycan array binding signal (z-score) [28]: -0.154
- glycan array binding signal (z-score) [29]: -0.142
- glycan array binding signal (z-score) [30]: -0.141
- glycan array binding signal (z-score) [31]: -0.152
- glycan array binding signal (z-score) [32]: -0.125
- glycan array binding signal (z-score) [33]: -0.12
- glycan array binding signal (z-score) [34]: -0.136
- glycan array binding signal (z-score) [35]: -0.14
- glycan array binding signal (z-score) [36]: -0.138
- glycan array binding signal (z-score) [37]: -0.115
- glycan array binding signal (z-score) [38]: -0.155
- glycan array binding signal (z-score) [39]: -0.16
- glycan array binding signal (z-score) [40]: 0.885
- glycan array binding signal (z-score) [41]: -0.124
- glycan array binding signal (z-score) [42]: -0.143
- glycan array binding signal (z-score) [43]: -0.152
- glycan array binding signal (z-score) [44]: -0.076
- glycan array binding signal (z-score) [45]: -0.15
